Results on 55 compounds are retold here after PMC4336329 (PLoS ONE, 2015).

Screen size: about 310,000 compounds; about 14,000 (4.5%) showed an effect of 50% or more. The effect is printed as a negative number. Some of the results follow.
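Note: peak tail current of the secondary pulse compared with the same well before compound.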

human ether-à-go-go-related gene (hERG) potassium channel, sequence (Q12809 whole entry, looked up): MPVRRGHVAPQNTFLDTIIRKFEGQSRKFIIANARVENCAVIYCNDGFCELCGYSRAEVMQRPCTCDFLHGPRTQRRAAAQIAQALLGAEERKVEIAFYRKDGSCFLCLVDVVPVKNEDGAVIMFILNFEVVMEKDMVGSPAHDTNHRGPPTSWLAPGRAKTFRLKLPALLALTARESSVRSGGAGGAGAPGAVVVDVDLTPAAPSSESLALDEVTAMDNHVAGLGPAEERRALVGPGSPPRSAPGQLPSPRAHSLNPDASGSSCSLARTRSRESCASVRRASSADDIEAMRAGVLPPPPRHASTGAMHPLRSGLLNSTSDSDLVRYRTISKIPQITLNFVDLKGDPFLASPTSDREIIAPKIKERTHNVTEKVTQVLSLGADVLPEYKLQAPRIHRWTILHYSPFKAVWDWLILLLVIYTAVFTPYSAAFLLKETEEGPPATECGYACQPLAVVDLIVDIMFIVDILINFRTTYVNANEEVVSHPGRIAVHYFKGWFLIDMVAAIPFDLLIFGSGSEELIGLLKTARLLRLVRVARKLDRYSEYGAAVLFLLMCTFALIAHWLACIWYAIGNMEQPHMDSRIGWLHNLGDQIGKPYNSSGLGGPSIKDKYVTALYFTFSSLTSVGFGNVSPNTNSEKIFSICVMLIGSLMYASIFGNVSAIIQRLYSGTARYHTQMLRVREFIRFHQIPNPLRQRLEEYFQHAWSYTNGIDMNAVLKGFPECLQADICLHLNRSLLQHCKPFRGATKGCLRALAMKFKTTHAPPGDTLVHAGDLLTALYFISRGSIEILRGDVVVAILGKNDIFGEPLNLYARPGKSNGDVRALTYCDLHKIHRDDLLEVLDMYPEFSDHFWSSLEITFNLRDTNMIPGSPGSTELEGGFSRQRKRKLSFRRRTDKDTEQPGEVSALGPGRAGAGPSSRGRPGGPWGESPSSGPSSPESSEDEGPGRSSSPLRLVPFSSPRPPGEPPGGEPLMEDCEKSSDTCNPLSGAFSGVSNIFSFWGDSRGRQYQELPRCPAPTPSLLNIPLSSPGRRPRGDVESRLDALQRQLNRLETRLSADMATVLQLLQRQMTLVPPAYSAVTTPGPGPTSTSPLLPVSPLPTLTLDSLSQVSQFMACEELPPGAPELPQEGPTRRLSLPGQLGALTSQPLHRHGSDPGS

The test addresses human ether-à-go-go-related gene (hERG) potassium channel (human, UniProt Q12809). The test is described as follows: primary screen, population patch clamp on CHO cells stably expressing hERG.
`O=C(NC1CCCC1)c1cnc2n(c1=O)CCS2`: the “hERG current change (%, negative = inhibition) at 10uM” value is recorded as 1.7%.

For `CCOC(=O)[C@H]1[C@H]2COc3ccc(C)cc3[C@@H]2N2C(=O)CN(Cc3ccc(OC)cc3)C(=O)[C@@]12C`, the “hERG current change (%, negative = inhibition) at 10uM” value was -14.1%.

In the case of `Nc1cc(=O)[nH]c(SCC(=O)N2N=C(c3ccc(Cl)cc3)CC2c2ccco2)n1` (stereo not shown), the “hERG current change (%, negative = inhibition) at 10uM” value came out at 2.26%.

In the case of `COC(=O)C1=C(c2cccc(OCc3ccccc3)c2)C[C@@H]2CC[C@H]1N2C(=O)NCc1ccc(Cl)cc1`, the “hERG current change (%, negative = inhibition) at 10uM” value is 14.4%.

Take `CN1C(=O)c2cccc3c(S(=O)(=O)N(C)C)ccc1c23`: the “hERG current change (%, negative = inhibition) at 10uM” value came out at 3.53%.

In the case of `O=C1c2cccnc2C(Nc2ccc(S(=O)(=O)N3CCCCCC3)cc2)N1Cc1ccccc1` (stereo not shown), the “hERG current change (%, negative = inhibition) at 10uM” value is recorded as -9.79%.

In the case of `NC(=O)c1cc(N2CC2)c([N+](=O)[O-])cc1[N+](=O)[O-]`, the “hERG current change (%, negative = inhibition) at 10uM” value is listed as -0.332%.

For `CC(c1ccco1)N(C(=O)c1ccc(C#N)cc1)c1ccccn1` (stereo not shown), the “hERG current change (%, negative = inhibition) at 10uM” value is on record as 1.88%.

As to `COc1ccccc1-n1c(CNC(=O)c2cccc([N+](=O)[O-])c2C)n[nH]c1=S`, the “hERG current change (%, negative = inhibition) at 10uM” value came out at 35.6%.

For `Cc1cccc(NC(=S)NC(C)C(c2cccs2)N2CCN(C)CC2)c1C` (stereo not shown), the “hERG current change (%, negative = inhibition) at 10uM” value is on record as -60.5%.

For the compound `COc1cccc(NC(=O)NC(C)C2CC3CCC2C3)c1` (stereo not shown), the “hERG current change (%, negative = inhibition) at 10uM” value was found to be 3.65%.

As to `Cl.O=C(O)c1cc([N+](=O)[O-])cc([N+](=O)[O-])c1N1CCN(c2cccc(C(F)(F)F)c2)CC1`, the “hERG current change (%, negative = inhibition) at 10uM” value turned out to be 24%.

As for `C/C(CC(=O)Nc1cccc(Cl)c1Cl)=N\NC(=O)c1ccccc1C`, the “hERG current change (%, negative = inhibition) at 10uM” value came to 5.53%.

With `COc1ccc(CC(NC(C)=O)C(=O)NC2CCN(c3nnnn3-c3ccccc3)CC2)cc1` (stereo not shown), the “hERG current change (%, negative = inhibition) at 10uM” value turned out to be 6.64%.

In the case of `CC1(C(=O)O)COC(c2ccc(Cl)cc2)OC1` (stereo not shown), the “hERG current change (%, negative = inhibition) at 10uM” value was -25.3%.

With `O=C(NC(=S)Nc1ccc(Cl)cn1)c1cc([N+](=O)[O-])ccc1N1CCOCC1`, the “hERG current change (%, negative = inhibition) at 10uM” value worked out at 11%.

For `O=C(C[n+]1cc(-c2ccc(Cl)cc2)n2c1CCC2)N1c2ccccc2Sc2ccccc21.[Cl-]`, the “hERG current change (%, negative = inhibition) at 10uM” value is -22.1%.

Regarding `Cc1ccc(C(=O)CSc2nc3ccccc3c(=O)n2-c2ccccc2)s1`, the “hERG current change (%, negative = inhibition) at 10uM” value is reported as 9.37%.

For the compound `Cn1cccc1-c1cc(C(=O)N/N=C/c2ccc(F)cc2)[nH]n1`, the “hERG current change (%, negative = inhibition) at 10uM” value is reported as -20.5%.

Regarding `O=C(NNC(=O)c1csc(-c2cccnc2)n1)c1ccccc1`, the “hERG current change (%, negative = inhibition) at 10uM” value is -2.62%.

As for `COc1cccc(CN(C)Cc2cc(=O)oc3c(C)c(C)ccc23)c1`, the “hERG current change (%, negative = inhibition) at 10uM” value was 7.46%.

Take `Cc1nc(CN(C)C(=O)c2cc(COc3ccc4ncccc4c3)on2)cs1`: the “hERG current change (%, negative = inhibition) at 10uM” value is on record as 5.24%.

Regarding `COc1c(F)c(F)c(C(=O)Nc2ccccc2N2CCN(C(=O)C(C)C)CC2)c(F)c1F`, the “hERG current change (%, negative = inhibition) at 10uM” value was found to be 6.51%.

As to `COCCn1c(SCc2cc(=O)n3ccsc3n2)nnc1-c1ccncc1`, the “hERG current change (%, negative = inhibition) at 10uM” value came out at 16.7%.

As for `Cc1cc(NC(=O)NCc2ccccc2)c(=O)n(Cc2ccc(F)cc2)c1`, the “hERG current change (%, negative = inhibition) at 10uM” value came to 33.1%.

On to `CCOC(=O)c1cc(NC(=O)Nc2cc(C)ccn2)c(C)nc1C`, for which the “hERG current change (%, negative = inhibition) at 10uM” value came to 7.72%.

As to `COC(=O)c1cn(NC(=O)/C=C/c2cccc(OC)c2OC)c(=O)c2ccccc12`, the “hERG current change (%, negative = inhibition) at 10uM” value is 1.59%.

For the compound `COc1ccc([N+](=O)[O-])cc1N(CC(O)CN1CCCCC1)S(=O)(=O)c1ccc(C)cc1` (stereo not shown), the “hERG current change (%, negative = inhibition) at 10uM” value is on record as -42.7%.

Turning to `Cc1nn(C)c(C(=O)Sc2cccc(Cl)c2)c1[N+](=O)[O-]`, the “hERG current change (%, negative = inhibition) at 10uM” value was 13.9%.

Take `Br.N=C1CCCN1CC(=O)c1ccc(Cl)cc1`: the “hERG current change (%, negative = inhibition) at 10uM” value amounted to 1.8%.

With `O=C(O)CS/C(=C\c1ccc(F)cc1)c1nc2ccccc2s1`, the “hERG current change (%, negative = inhibition) at 10uM” value is reported as -2.8%.

As to `O=C(COC(=O)C1CCCCC1)Nc1cc([N+](=O)[O-])ccc1F`, the “hERG current change (%, negative = inhibition) at 10uM” value stood at 35.5%.

For the compound `O=C(CCN1CCOCC1)Nc1ccc2c(c1)CCC2`, the “hERG current change (%, negative = inhibition) at 10uM” value is given as -6.34%.

With `CCOC(=O)N1CCN(C(=O)CCCn2c(=S)[nH]c3ccsc3c2=O)CC1`, the “hERG current change (%, negative = inhibition) at 10uM” value is reported as 15%.

With `CC(C(=O)Nc1cccnc1)n1cc([N+](=O)[O-])cn1` (stereo not shown), the “hERG current change (%, negative = inhibition) at 10uM” value came out at 17.7%.

`CCCCNC(=O)C1CCC(CNS(=O)(=O)c2cccc3nsnc23)CC1` (stereo not shown): the “hERG current change (%, negative = inhibition) at 10uM” value turned out to be 7.06%.

In the case of `CCCC(CCC)C(=O)O`, the “hERG current change (%, negative = inhibition) at 10uM” value stood at 10.2%.

For the compound `Cc1ccc(N(C)S(=O)(=O)c2ccc(C)cc2)cc1`, the “hERG current change (%, negative = inhibition) at 10uM” value is recorded as -15.6%.

Consider `COc1ccc(C2CC(=O)c3cnc(NC(=O)c4ccco4)nc3C2)cc1` (stereo not shown), for which the “hERG current change (%, negative = inhibition) at 10uM” value is recorded as -4.36%.

Consider `O=C(NCCN1CCCCC1)Nc1cccc(Cl)c1Cl`, for which the “hERG current change (%, negative = inhibition) at 10uM” value was -29.3%.

Regarding `O=C(N/N=C/c1cccnc1)C12CC3CC(CC(C3)C1)C2`, the “hERG current change (%, negative = inhibition) at 10uM” value was 19.1%.

As to `O=C(c1cccc2ccccc12)N1CCCCC1`, the “hERG current change (%, negative = inhibition) at 10uM” value is reported as 16.2%.

Consider `CCOC(=O)N1CCN(C(=O)c2ccc3c(=O)n(Cc4ccccc4)c(=S)[nH]c3c2)CC1`, for which the “hERG current change (%, negative = inhibition) at 10uM” value is reported as -43.8%.

In the case of `CCC(=O)N1CC2(c3ccccc3)CN(C(=O)CC)CC(c3ccccc3)(C1)C2=O`, the “hERG current change (%, negative = inhibition) at 10uM” value is listed as 5.6%.

`CN(Cc1ccc(Cl)cc1)C(=O)COC(=O)c1ccc(-c2ccc(O)cc2)cc1`: the “hERG current change (%, negative = inhibition) at 10uM” value is 7.23%.

In the case of `CN(Cc1ccccc1Cl)C(=O)c1cnccc1C(F)(F)F`, the “hERG current change (%, negative = inhibition) at 10uM” value worked out at 2.87%.

As to `O=C(CSc1nnc(-c2ccc(Cl)cc2)n1Cc1ccco1)NCc1ccc2c(c1)OCO2`, the “hERG current change (%, negative = inhibition) at 10uM” value was -75.3%.

For `O=c1c2c(-c3ccccc3)ccnc2[nH]n1-c1ccccc1`, the “hERG current change (%, negative = inhibition) at 10uM” value is recorded as 16.5%.

Take `COc1ccc(Br)c(C(=O)NNC(=O)c2ccc(NS(=O)(=O)c3cccs3)cc2)c1`: the “hERG current change (%, negative = inhibition) at 10uM” value is 12.6%.

Turning to `Cc1ccc(NC(=O)C2COc3ccccc3O2)cc1C` (stereo not shown), the “hERG current change (%, negative = inhibition) at 10uM” value is recorded as 3.72%.

Take `Cc1cc(CNC(=S)Nc2ccc(S(=O)(=O)Nc3ncccn3)cc2)nn1C`: the “hERG current change (%, negative = inhibition) at 10uM” value amounted to 8.18%.

For the compound `Cc1ccccc1CN1CCC(CNC(=O)Nc2ccc(F)cc2F)CC1`, the “hERG current change (%, negative = inhibition) at 10uM” value is reported as -31.4%.

As to `CCOc1ccc(-c2nnn(CC#N)n2)cc1OC`, the “hERG current change (%, negative = inhibition) at 10uM” value was -7.44%.

`CCOC(=O)c1cc(C)sc1NC(=S)Nc1ccccc1`: the “hERG current change (%, negative = inhibition) at 10uM” value came out at 10.1%.

For `Cc1cc(=O)oc2c(C)c(OCC(=O)NCCc3ccc(S(N)(=O)=O)cc3)ccc12`, the “hERG current change (%, negative = inhibition) at 10uM” value came out at 7.3%.
